{"source": "patent US20220411536A1", "about": "(NUMAB THERAPEUTICS, published 2022)", "binders": {"B1": {"name": "PRO1547 (multispecific antibody)", "chain 1": "[not shown - about 100 residues]RTVAAPSVFIFPPDVVMTQSPSSLSASVGDRVTITCQASQIISSRSAWYQQKPGQPPKLLIYQASKLASGVPSRFSGSGSGTDFTLTISSLQPEDFATYYCQCTYIDSNFGAFGCGTKLTVLGTVAAPSVFIFPPSDEQLKSGTASVVCLLNNFYPREAKVQWKVDNALQSGNSQESVTEQDSKDSTYSLSSTLTLSKADYEKHKVYACEVTHQGLSSPVTKSFNRGECGGGGSGGGGSDIQMTQSPSSLSASVGDRVTITCQSSQSVFSNNYLAWFQQKPGQSPKRLIYSASTLASGVPSRFSGSGSGTDFTLTISSLQPEDFATYYCLGSYACSSADCYVFGTGTKVTVLGGGGGSGGGGSGGGGSGGGGSEVQLVESGGGLVQPGGSLRLSCAASGFSLSSYDMSWVRQAPGKGLAWIGASYASGPTYYASWAKGRFTISRDNSKNTVYLQMNSLRAEDTATYFCARGGWTGTSHSNIWGQGTLVTVSS", "chain 2": "[not shown - about 120 residues]ASTKGPSVFPLAPEVQLVESGGGLVQPGGSLRLSCAASGFSFSSSYWICWVRQAPGKCLEWVGCVFTGDGTTYYASWAKGRFTISRDNSKNTVYLQMNSLRAEDTATYFCARPVSVYYYGMDLWGQGTLVTVSSASTKGPSVFPLAPSSKSTSGGTAALGCLVKDYFPEPVTVSWNSGALTSGVHTFPAVLQSSGLYSLSSVVTVPSSSLGTQTYICNVNHKPSNTKVDKKVEPKSCGGGGSGGGGSIQMTQSPSSLSASVGDRVTITCQASQSINDYLAWYQQKPGKAPKLLIYKASTLASGVPSRFSGSGSGTDFTLTISSLQPEDFATYYCQAAYIITDIDNVFGTGTKVTVLGGGGGSGGGGSGGGGSGGGGSQVQLQESGPGLVKPSETLSLTCKVSGFSFSSGYDMCWIRQPPGKGLEWIGCVVAGSVDITYYASWAKGRVTISVDSSKNQFSLKLSSVTAADTAVYYCARKDAYSDAFNLWGQGTLVTVSS"}, "B2": {"name": "PRO1548 (multispecific antibody)", "chain 1": "[not shown - about 100 residues]RTVAAPSVFIFPPDVVMTQSPSSLSASVGDRVTITCQASQIISSRSAWYQQKPGQPPKLLIYQASKLASGVPSRFSGSGSGTDFTLTISSLQPEDFATYYCQCTYIDSNFGAFGCGTKLTVLGTVAAPSVFIFPPSDEQLKSGTASVVCLLNNFYPREAKVQWKVDNALQSGNSQESVTEQDSKDSTYSLSSTLTLSKADYEKHKVYACEVTHQGLSSPVTKSFNRGECGGGGSGGGGSDIQMTQSPSSLSASVGDRVTITCQSSQSVFSNNYLAWFQQKPGQSPKRLIYSASTLASGVPSRFSGSGSGTDFTLTISSLQPEDFATYYCLGSYACSSADCYVFGTGTKVTVLGGGGGSGGGGSGGGGSGGGGSEVQLVESGGGLVQPGGSLRLSCAASGFSLSSYDMSWVRQAPGKGLAWIGASYASGPTYYASWAKGRFTISRDNSKNTVYLQMNSLRAEDTATYFCARGGWTGTSHSNIWGQGTLVTVSS", "chain 2": "[not shown - about 120 residues]ASTKGPSVFPLAPEVQLVESGGGLVQPGGSLRLSCAASGFSFSSSYWICWVRQAPGKCLEWVGCVFTGDGTTYYASWAKGRFTISRDNSKNTVYLQMNSLRAEDTATYFCARPVSVYYYGMDLWGQGTLVTVSSASTKGPSVFPLAPSSKSTSGGTAALGCLVKDYFPEPVTVSWNSGALTSGVHTFPAVLQSSGLYSLSSVVTVPSSSLGTQTYICNVNHKPSNTKVDKKVEPKSCGGGGSGGGGSIQMTQSPSSLSASVGDRVTITCQASENIYSFLAWYQQKPGKAPKLLIYSASKLAAGVPSRFSGSGSGTDFTLTISSLQPEDFATYYCQQTNRYSNPDIYNVFGTGTKVTVLGGGGGSGGGGSGGGGSGGGGSEVQLVESGGGLVQPGGSLRLSCAASGIDFNSNYYMCWVRQAPGKGLEWIGCIYVGSHVNTYYANWAKGRFTISRDNSKNTVYLQMNSLRAEDTAVYYCATSGSSVLYFKFWGQGTLVTVSS"}, "B3": {"name": "PRO1678 (multispecific antibody)", "chain": "DIQMTQSPSSLSASVGDRVTITCQASQSINDYLAWYQQKPGKAPKLLIYKASTLASGVPSRFSGSGSGTDFTLTISSLQPEDFATYYCQAAYIITDIDNVFGTGTKVTVLGGGGGS[not shown - about 120 residues]GGGGSGGGGSGGGGSGGGGSIQMTQSPSSLSASVGDRVTITCRASQDVNTAVAWYQQKPGKAPKLLIYSASFLYSGVPSRFSGSRSGTDFTLTISSLQPEDFATYYCQQHYTTPPTFGCGTKLTVLGGGGGSQVQLQESGPGLVKPSETLSLTCKVSGFSFSSGYDMCWIRQPPGKGLEWIGCVVAGSVDITYYASWAKGRVTISVDSSKNQFSLKLSSVTAADTAVYYCARKDAYSDAFNLWGQGTLVTVSSGGGGSGGGGSVVMTQSPSSLSASVGDRVTITCQASQIISSRSAWYQQKPGQPPKLLIYQASKLASGVPSRFSGSGSGTDFTLTISSLQPEDFATYYCQCTYIDSNFGAFGGGTKLTVLGGGGGSGGGGSGGGGSGGGGSEVQLVESGGGLVQPGGSLRLSCAASGFSFSSSYWICWVRQAPGKGLEWVGCVFTGDGTTYYASWAKGRFTISRDNSKNTVYLQMNSLRAEDTATYFCARPVSVYYYGMDLWGQGTLVTVSS", "notes": "also called scMATCH3"}}, "key": {"[1]": {"target": "CD3e on Jurkat PD-1 NFAT reporter T cells or on T cells of human PBMCs (human, UniProt P07766)", "T3 sequence (P07766 23-126)": "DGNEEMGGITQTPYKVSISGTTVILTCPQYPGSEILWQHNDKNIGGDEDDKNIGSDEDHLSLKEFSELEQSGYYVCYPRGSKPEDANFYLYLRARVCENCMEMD", "experiment": "cell-based or functional assay"}, "[2]": {"target": "T1, recombinant human IL-23R (custom-made by Trenzyme) (human, UniProt Q5VWK5 24-355)", "T1 sequence (looked up)": "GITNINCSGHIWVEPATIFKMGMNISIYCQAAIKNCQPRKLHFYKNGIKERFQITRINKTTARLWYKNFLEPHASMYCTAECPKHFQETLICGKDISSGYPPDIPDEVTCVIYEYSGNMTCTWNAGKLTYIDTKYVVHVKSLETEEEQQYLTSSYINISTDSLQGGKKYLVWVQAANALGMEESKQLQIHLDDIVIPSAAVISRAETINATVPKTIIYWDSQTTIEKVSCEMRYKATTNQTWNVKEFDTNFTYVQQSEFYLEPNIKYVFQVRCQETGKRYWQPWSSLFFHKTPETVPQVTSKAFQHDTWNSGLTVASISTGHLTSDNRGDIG", "experiment": "SPR, immobilised IL-23R"}, "[3]": {"target": "T2, Fc-tagged human PD-L1 extracellular domain (SinoBiological, cat. 10084-H02H) (human, UniProt Q9NZQ7 in part)", "T2 construct": "extracellular domain; also called hPD-L1; not shown: Fc tag of the bought protein", "experiment": "SPR, captured Fc-PD-L1 ECD, steady state"}, "[4]": {"target": "T3, recombinant human CD3E ECD (SinoBiological, cat. 10977-H08H) (human, UniProt P07766 23-126)", "T3 construct": "extracellular domain; bought protein; also called CD3s", "experiment": "SPR, immobilised CD3e ECD, two-state model"}, "[5]": {"target": "T3, recombinant human CD3E ECD …", "experiment": "SPR, immobilised CD3e ECD, two-state model (ka1)"}, "[6]": {"target": "T3, recombinant human CD3E ECD …", "experiment": "SPR, immobilised CD3e ECD, two-state model (kd1)"}, "[7]": {"target": "T4, human PD-L1 expressed on cells (CHO-PD-L1, HCC1954, HCC827) (human, UniProt Q9NZQ7)", "T4 construct": "whole, on cells; also called hPD-L1; PD-L1 expressing cells", "experiment": "flow cytometry, inhibition of biotinylated PD-1 binding to HCC1954 cells"}, "[8]": {"target": "T2, Fc-tagged human PD-L1 extracellular …", "experiment": "SPR, captured Fc-PD-L1 ECD"}, "human serum albumin": {"target": "T5, human serum albumin (human, UniProt P02768)", "T5 construct": "also called HSA; human SA", "experiment": "SPR, immobilised HSA, pH 5.5"}, "mouse serum albumin": {"target": "T6, mouse serum albumin (mouse, UniProt P07724 25-608)", "T6 construct": "also called MSA; mouse SA", "experiment": "SPR, immobilised MSA, pH 5.5"}, "[9]": {"target": "T2, Fc-tagged human PD-L1 extracellular …", "experiment": "SPR, captured Fc-PD-L1 ECD, steady state", "remark": "listed apart in the source"}, "[10]": {"target": "T4, human PD-L1 expressed on cells …", "experiment": "flow cytometry with human SA, inhibition of PD-1 binding to HCC827 cells"}, "[11]": {"target": "T4, human PD-L1 expressed on cells …", "experiment": "flow cytometry with human SA, inhibition of PD-1 binding to HCC1954 cells"}}, "note": "Where two headings read alike, the source gives them in different places."}
{"binder": "B1", "values": [{"measurement": "IC50, NFAT reporter, CHO-PD-L1 (A2 clone) cells", "setting": "[1]", "value": 142, "unit": "nM"}, {"measurement": "IC50, NFAT reporter, HCC1954 cells", "setting": "[1]", "value": 0.779, "unit": "nM"}, {"measurement": "rel. max. activation vs PRO1497, NFAT reporter, HCC1954 cells", "setting": "[1]", "value": 106, "unit": "%"}, {"measurement": "rel. max. activation vs PRO1497 on HCC1954, NFAT reporter, CHO-PD-L1 (A2 clone) cells", "setting": "[1]", "value": 19, "unit": "%"}, {"measurement": "binding result", "setting": "[2]", "value": "no binding (tested: 90 nM highest concentration)"}, {"measurement": "Kd", "setting": "[3]", "value": 916, "unit": "nM"}, {"measurement": "KD1", "setting": "[4]", "value": 25.2, "unit": "nM"}, {"measurement": "Kd", "setting": "[4]", "value": 14.5, "unit": "nM"}, {"measurement": "kd2", "setting": "[4]", "value": 0.000819, "unit": "s⁻¹"}, {"measurement": "kon", "setting": "[5]", "value": 197000, "unit": "M⁻¹ s⁻¹"}, {"measurement": "koff", "setting": "[6]", "value": 0.00497, "unit": "s⁻¹"}, {"measurement": "IC50", "setting": "[7]", "value": 0.522, "unit": "µg/mL"}]}
{"binder": "B2", "values": [{"measurement": "IC50, NFAT reporter, HCC1954 cells", "setting": "[1]", "value": 0.325, "unit": "nM"}, {"measurement": "rel. max. activation vs PRO1497, NFAT reporter, HCC1954 cells", "setting": "[1]", "value": 86, "unit": "%"}, {"measurement": "Kd", "setting": "[2]", "value": 0.985, "unit": "nM"}, {"measurement": "koff", "setting": "[2]", "value": 0.000236, "unit": "s⁻¹"}, {"measurement": "kon", "setting": "[2]", "value": 240000, "unit": "M⁻¹ s⁻¹"}, {"measurement": "binding result", "setting": "[8]", "value": "no binding"}, {"measurement": "KD1", "setting": "[4]", "value": 14.4, "unit": "nM"}, {"measurement": "Kd", "setting": "[4]", "value": 8.28, "unit": "nM"}, {"measurement": "kd2", "setting": "[4]", "value": 0.00129, "unit": "s⁻¹"}, {"measurement": "kon", "setting": "[5]", "value": 282000, "unit": "M⁻¹ s⁻¹"}, {"measurement": "koff", "setting": "[6]", "value": 0.00406, "unit": "s⁻¹"}]}
{"binder": "B3", "values": [{"measurement": "Kd", "setting": "human serum albumin", "value": 3.45, "unit": "nM"}, {"measurement": "koff", "setting": "human serum albumin", "value": 0.000762, "unit": "s⁻¹"}, {"measurement": "kon", "setting": "human serum albumin", "value": 221000, "unit": "M⁻¹ s⁻¹"}, {"measurement": "Kd", "setting": "mouse serum albumin", "value": 37.8, "unit": "nM"}, {"measurement": "koff", "setting": "mouse serum albumin", "value": 0.00518, "unit": "s⁻¹"}, {"measurement": "kon", "setting": "mouse serum albumin", "value": 137000, "unit": "M⁻¹ s⁻¹"}, {"measurement": "Kd", "setting": "[9]", "value": 156, "unit": "nM"}, {"measurement": "IC50", "setting": "[10]", "value": 43.5, "unit": "µg/mL"}, {"measurement": "IC50", "setting": "[11]", "value": 0.428, "unit": "µg/mL"}]}
